The other results are listed elsewhere or left out. Interaction screen of human proteins with wild-type SARS-CoV-2 proteins by split-DHFR complementation in yeast, 1 µg/mL methotrexate. Value = fitness of the pair (three or more lineages) minus that of the viral protein without a human partner, on a scale set by negative (0) and fused positive (1) controls, mean of up to three cultures; higher = more likely to interact. Active = false discovery rate below 0.05 (one-sided t-test) in at least one culture. Nearly all pairs are not hits, and differences among them are mostly noise (correlation between cultures about 0.3); most hits were seen in one culture only. Human sequences are the Swiss-Prot entries looked up by gene name; the clone may be another isoform. NSP2 values were corrected by the authors for a growth advantage. Listed are human proteins with a hit and a random twelfth of the others.
Columns and labels:
Assay in all cases: yeast fitness gain over the viral ORF with no human partner (scaled fitness); higher = more likely to interact
SARS-CoV-2 NSP10 = target: SARS-CoV-2 NSP10
Protocol: (§1)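 Split mouse DHFR complementation in pooled diploid yeast: human ORFeome clones carry one fragment and viral ORFs the other; barcoded lineages compete in 1 µg/mL methotrexate and fitness is read by barcode sequencing in up to three cultures.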

SARS-CoV-2 NSP12 = target: SARS-CoV-2 NSP12
Protocol: as §1

SARS-CoV-2 NSP13 = target: SARS-CoV-2 NSP13
Protocol: as §1

SARS-CoV-2 NSP16 = target: SARS-CoV-2 NSP16
Protocol: as §1

SARS-CoV-2 NSP2 = target: SARS-CoV-2 NSP2
Protocol: as §1

SARS-CoV-2 NSP4 = target: SARS-CoV-2 NSP4
Protocol: as §1

SARS-CoV-2 NSP5 = target: SARS-CoV-2 NSP5
Protocol: as §1

SARS-CoV-2 NSP7 = target: SARS-CoV-2 NSP7
Protocol: as §1

SARS-CoV-2 NSP8 = target: SARS-CoV-2 NSP8
Protocol: as §1

SARS-CoV-2 ORF10 = target: SARS-CoV-2 ORF10
Protocol: as §1

SARS-CoV-2 ORF6 = target: SARS-CoV-2 ORF6
Protocol: as §1

SARS-CoV-2 ORF7A = target: SARS-CoV-2 ORF7A
Protocol: as §1

SARS-CoV-2 ORF7B = target: SARS-CoV-2 ORF7B
Protocol: as §1

SARS-CoV-2 ORF8 = target: SARS-CoV-2 ORF8
Protocol: as §1

SARS-CoV-2 ORF9B = target: SARS-CoV-2 ORF9B
Protocol: as §1

SARS-CoV-2 S = target: SARS-CoV-2 S
Protocol: as §1

SARS-CoV-2 NSP6 = target: SARS-CoV-2 NSP6
Protocol: as §1

SARS-CoV-2 ORF3B = target: SARS-CoV-2 ORF3B
Protocol: as §1

SARS-CoV-2 NSP15 = target: SARS-CoV-2 NSP15
Protocol: as §1

Measured: yeast fitness gain

B1: RBFA, Q8N0V3 (protein)
chain: MWAAAGGLWRSRAGLRALFRSRDAALFPGCERGLHCSAVSCKNWLKKFASKTKKKVWYESPSLGSHSTYKPSKLEFLMRSTSKKTRKEDHARLRALNGLLYKALTDLLCTPEVSQELYDLNVELSKVSLTPDFSACRAYWKTTLSAEQNAHMEAVLQRSAAHMRHLLMSQQTLRNVPPIVFVQDKGNAALAELDQLLAVADFGPRDERDNFVQNDFRDPDAPQPCGTTEPTTSSSLCGIDHEALNKQIMEYKRRKDKGLGGLVWQGQVAELTTQMKKGRKRAKPRLEQDSSLKSYLSGEEVEDDLDLVGAPEYECYAPDTEELEAERGGGRTEDGHSCGASRE
inactive: SARS-CoV-2 NSP10 = 0.0166 | SARS-CoV-2 NSP12 = 0.102 | SARS-CoV-2 NSP13 = 0.0334 | SARS-CoV-2 NSP16 = 0.0543 | SARS-CoV-2 NSP2 = -0.0489 | SARS-CoV-2 NSP4 = -0.208 | SARS-CoV-2 NSP5 = -0.0481 | SARS-CoV-2 NSP7 = 0.0456 | SARS-CoV-2 NSP8 = 0.00536 | SARS-CoV-2 ORF10 = -0.0934 | SARS-CoV-2 ORF6 = 0.0298 | SARS-CoV-2 ORF7A -0.158 | SARS-CoV-2 ORF7B 0.0559 | SARS-CoV-2 ORF8 = 0.0833 | SARS-CoV-2 ORF9B 0.0211 | SARS-CoV-2 S 0.0658

B2: NYX, Q9GZU5 (protein)
chain: MLVLLLHAVVLGLPSAWAVGACARACPAACACSTVERGCSVRCDRAGLLRVPAELPCEAVSIDLDRNGLRFLGERAFGTLPSLRRLSLRHNNLSFITPGAFKGLPRLAELRLAHNGDLRYLHARTFAALSRLRRLDLAACRLFSVPERLLAELPALRELAAFDNLFRRVPGALRGLANLTHAHLERGRIEAVASSSLQGLRRLRSLSLQANRVRAVHAGAFGDCGVLEHLLLNDNLLAELPADAFRGLRRLRTLNLGGNALDRVARAWFADLAELELLYLDRNSIAFVEEGAFQNLSGLLALHLNGNRLTVLAWVAFQPGFFLGRLFLFRNPWCCDCRLEWLRDWMEGSGRVTDVPCASPGSVAGLDLSQVTFGRSSDGLCVDPEELNLTTSSPGPSPEPAATTVSRFSSLLSKLLAPRVPVEEAANTTGGLANASLSDSLSSRGVGGAGRQPWFLLASCLLPSVAQHVVFGLQMD
inactive: SARS-CoV-2 NSP10 = -0.0146 | SARS-CoV-2 NSP12 = -0.031 | SARS-CoV-2 NSP13 = 0.0752 | SARS-CoV-2 NSP2 = -0.262 | SARS-CoV-2 NSP5 = -0.066 | SARS-CoV-2 NSP6 = 0.0347 | SARS-CoV-2 NSP7 = -0.189 | SARS-CoV-2 ORF3B -0.0415 | SARS-CoV-2 ORF6 = -0.0358 | SARS-CoV-2 ORF7A 0.027 | SARS-CoV-2 ORF7B -0.00517 | SARS-CoV-2 ORF8 = -0.0782 | SARS-CoV-2 ORF9B 0.00656 | SARS-CoV-2 S 0.0392

B3: MFSD5, Q6N075 (protein)
chain: MLVTAYLAFVGLLASCLGLELSRCRAKPPGRACSNPSFLRFQLDFYQVYFLALAADWLQAPYLYKLYQHYYFLEGQIAILYVCGLASTVLFGLVASSLVDWLGRKNSCVLFSLTYSLCCLTKLSQDYFVLLVGRALGGLSTALLFSAFEAWYIHEHVERHDFPAEWIPATFARAAFWNHVLAVVAGVAAEAVASWIGLGPVAPFVAAIPLLALAGALALRNWGENYDRQRAFSRTCAGGLRCLLSDRRVLLLGTIQALFESVIFIFVFLWTPVLDPHGAPLGIIFSSFMAASLLGSSLYRIATSKRYHLQPMHLLSLAVLIVVFSLFMLTFSTSPGQESPVESFIAFLLIELACGLYFPSMSFLRRKVIPETEQAGVLNWFRVPLHSLACLGLLVLHDSDRKTGTRNMFSICSAVMVMALLAVVGLFTVVRHDAELRVPSPTEEPYAPEL
inactive: SARS-CoV-2 NSP10 = 0.0341 | SARS-CoV-2 NSP12 = 0.0369 | SARS-CoV-2 NSP13 = -0.035 | SARS-CoV-2 NSP15 = 0.117 | SARS-CoV-2 NSP2 = -0.128 | SARS-CoV-2 NSP5 = -0.0621 | SARS-CoV-2 NSP7 = -0.0147 | SARS-CoV-2 NSP8 = -0.034 | SARS-CoV-2 ORF10 = -0.0114 | SARS-CoV-2 ORF3B 0.0703 | SARS-CoV-2 ORF7B 0.116 | SARS-CoV-2 ORF8 = 0.12 | SARS-CoV-2 ORF9B -0.085 | SARS-CoV-2 S -0.0619

B4: SLC17A8, Q8NDX2 (protein)
chain: MPFKAFDTFKEKILKPGKEGVKNAVGDSLGILQRKIDGTTEEEDNIELNEEGRPVQTSRPSPPLCDCHCCGLPKRYIIAIMSGLGFCISFGIRCNLGVAIVEMVNNSTVYVDGKPEIQTAQFNWDPETVGLIHGSFFWGYIMTQIPGGFISNKFAANRVFGAAIFLTSTLNMFIPSAARVHYGCVMCVRILQGLVEGVTYPACHGMWSKWAPPLERSRLATTSFCGSYAGAVVAMPLAGVLVQYIGWSSVFYIYGMFGIIWYMFWLLQAYECPAAHPTISNEEKTYIETSIGEGANVVSLSKFSTPWKRFFTSLPVYAIIVANFCRSWTFYLLLISQPAYFEEVFGFAISKVGLLSAVPHMVMTIVVPIGGQLADYLRSRQILTTTAVRKIMNCGGFGMEATLLLVVGFSHTKGVAISFLVLAVGFSGFAISGFNVNHLDIAPRYASILMGISNGVGTLSGMVCPLIVGAMTRHKTREEWQNVFLIAALVHYSGVIFYGVFASGEKQEWADPENLSEEKCGIIDQDELAEEIELNHESFASPKKKMSYGATSQNCEVQKKEWKGQRGATLDEEELTSYQNEERNFSTIS
inactive: SARS-CoV-2 NSP10 = 0.0261 | SARS-CoV-2 NSP12 = 0.0828 | SARS-CoV-2 NSP13 = -0.0198 | SARS-CoV-2 NSP2 = -0.136 | SARS-CoV-2 ORF6 = -0.0947 | SARS-CoV-2 ORF9B -0.408 | SARS-CoV-2 S 0.0296

B5: C15orf37, Q8NBB2 (protein)
chain: MPRPASESWSPIQSRIPAYKAVSHLRLLPTANSPSGSNQPTNPNRAQHPEGPQSREGATSPVLASLEPPTPTDLPSARARPRVPAESGPGWLHKARRPTRGILRDVLRHRGVPAQPRPAPGAHQLSSPSS
inactive: SARS-CoV-2 NSP10 = 0.0349 | SARS-CoV-2 NSP13 = -0.0867 | SARS-CoV-2 NSP16 = -0.0466 | SARS-CoV-2 ORF9B -0.138

B6: RARS, P54136 (protein)
chain: MDVLVSECSARLLQQEEEIKSLTAEIDRLKNCGCLGASPNLEQLQEENLKLKYRLNILRKSLQAERNKPTKNMINIISRLQEVFGHAIKAAYPDLENPPLLVTPSQQAKFGDYQCNSAMGISQMLKTKEQKVNPREIAENITKHLPDNECIEKVEIAGPGFINVHLRKDFVSEQLTSLLVNGVQLPALGENKKVIVDFSSPNIAKEMHVGHLRSTIIGESISRLFEFAGYDVLRLNHVGDWGTQFGMLIAHLQDKFPDYLTVSPPIGDLQVFYKESKKRFDTEEEFKKRAYQCVVLLQGKNPDITKAWKLICDVSRQELNKIYDALDVSLIERGESFYQDRMNDIVKEFEDRGFVQVDDGRKIVFVPGCSIPLTIVKSDGGYTYDTSDLAAIKQRLFEEKADMIIYVVDNGQSVHFQTIFAAAQMIGWYDPKVTRVFHAGFGVVLGEDKKKFKTRSGETVRLMDLLGEGLKRSMDKLKEKERDKVLTAEELNAAQTSVAYGCIKYADLSHNRLNDYIFSFDKMLDDRGNTAAYLLYAFTRIRSIARLANIDEEMLQKAARETKILLDHEKEWKLGRCILRFPEILQKILDDLFLHTLCDYIYELATAFTEFYDSCYCVEKDRQTGKILKVNMWRMLLCEAVAAVMAKGFDILGIKPVQRM
inactive: SARS-CoV-2 NSP10 = 0.0952 | SARS-CoV-2 NSP12 = -0.0214
